Measured values from a collection of fitness landscapes (doi:10.1016/j.celrep.2020.107928).
In all, about 81,000 sequences were measured (“one-hybrid fitness for binding NBS DNA”: median about -0.1, highest 2% from about 0.36 on). This is one part of the list.

B1: Caulobacter ParB omega fusion; a variant is named by its letters at X, in order, B8GW30 (parent)
chain: MESVVVGEPGMSEGRRGLGRGLSALLGEVDAAPAQAPGEQLGGSREAPIEILQRNPDQPRRTFREEDLEDLSNSIREKGVLQPILVRPSPDTAGEYQIVAGERAWRAAQRAGLKTVPIMVRELDDLAVLEIGIIENVQRADLNVLEEALSYKVLMEKFERTQENIAQTIGKSXSHVANXMRLLXLPDEVQSYLVSGELTAXHARAIAAAADPVALAKQIIEGGLSVRETEALARKAPNLSAGKSKGGRPPRVKDTDTQALESDLSSVLGLDVSIDHRGSTGTLTITYATLEQLDDLCNRLTRGI

Variants of: B1
Assay: one-hybrid fitness for binding NBS DNA (the Noc-binding site; scaled: cognate 1, non-cognate 0); higher = stronger binding
Settings: with NBS DNA site
Procedure, shortened: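 Selection: bacterial one-hybrid in E. coli USO, HIS3 reporter with the site 19 bp from the promoter, 48 hours at 37°C on M9-minus-histidine plus 0.1 mM IPTG and 5 mM 3-AT. Libraries were Caulobacter ParB with four randomised specificity codons, sequenced on Illumina before and after selection. Fitness is the rescaled log change in variant-to-wild-type read ratio, anchored to the cognate and non-cognate sites.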

one-hybrid fitness for binding NBS DNA, 0.232:
KYRS

one-hybrid fitness for binding NBS DNA, 0.798:
RRKH

one-hybrid fitness for binding NBS DNA, 0.259:
QRTD

one-hybrid fitness for binding NBS DNA, 0.443:
RKFR

one-hybrid fitness for binding NBS DNA, 0.564:
QVKT

one-hybrid fitness for binding NBS DNA, 0.453:
QRNV

one-hybrid fitness for binding NBS DNA, ≤ 0.2:
KCSK
TSMV
IIEV
LLVC
NRTN
YTPR
SGMR
LQRP
MPAQ
MNMA
LNSV
PFKV
NDQE
LDTF
PLRC
IEDE
CWHL
LLMT
LIGN
KMTR
YWHY
FRER
DAFP
KSPC
HVHS
EKHT
PAVR
SESK
RYQD
RGHK
SLYT
YRIS
VGWG
FCPC
NKLR
PAGE
RMKE
DDRV
RAMN
VRRI
TKPP
IWTC
MNRD
EADV
QCAN
PPSA
RLHF
VLYS
YNGL
GNLP
KYFM
CCDY
NMNV
HVRC
AKST
CVDD
GITM
TSMK
LNMV
RGVR
MWAI
RWKF
EYQR
NLVC
HNNF
AISV
SCFS
KPYW
VYLL
ATPG
LKSG
QRPN
QWHI
TMSW
DFSS
TVQI
HHTC
AGWC
ISHD
NSLR
RVIF
LCRH
VDAR
TPCK
FSLM
WHAR
THAA
DALS
TFEL
MIPI
ADSP
DNQS
PMLL
RVYE
PHRG
MMVG
WASR
MHYC
ETEN
VKHM
SREL
PFRN
TTLV
WWHG
GDRM
WVHG
HRPR
KSQC
DTLV
GGNG
WKAV
PLID
AKSG
RVNI
LRSR
GVYC
VMFV
SGGS
VFRR
TIAE
NPAQ
CRNL
QSIC
CLMW
FRAT
PAKT
HVNR
ASSD
LPQF
NDYR
IRKV
CWQS
NCHD
WSVK
PIGR
FNRR
AMKG
LLVS
KKTK
QVSA
HCPY
WMEW

one-hybrid fitness for binding NBS DNA, 0.36:
NNYC
RAKH

one-hybrid fitness for binding NBS DNA, 0.308:
QRNP

one-hybrid fitness for binding NBS DNA, 0.362:
QRMV

one-hybrid fitness for binding NBS DNA, 0.403:
QMDR
